# Data published in PubChem BioAssay AID1347044 (National Center for Advancing Translational Sciences (NCATS), 2019).
# This is one part of the list. Shown are side measurements of this screen, not its main read-out; they come without a call. The list favours compounds with an active or inconclusive main result. The note in brackets gives the kind of curve behind each potency; many fits are weak.
# Test: Natriuretic polypeptide receptor (hNpr1) antagonism - Confirmation; further: nearly all actives have a fitted effect of over 70% in size
# Conditions: HEK293 hNpr1 cGMP GloSensor luminescence, ANP-stimulated; measured here: HEK-hNpr1 cytotoxicity, CellTiter-Glo
# How it was run: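 Compound (30 min, room temperature) preceded stimulation with hNppA peptide at 0.1 nM final for 20 min. Cells were HEK293 carrying hNpr1 plus GloSensor pGS-40F cGMP biosensor, pre-equilibrated 2 h with 2% substrate; cGMP was followed as luminescence pre- and post-agonist.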
# Tags describe the fitted curve by direction and shape.
row,Compound,CC50
1,NC(=O)Cc1c[nH]c2ncc(-c3ccccc3C(F)(F)F)cc12,"28 µM [falling, partial curve]"
2,CN1C[C@@H](NC(=O)Nc2cccc(C#N)c2)C[C@H]1c1nc(-c2ccc(Cl)cc2)no1,"22.2 µM [falling, partial curve]"
3,COc1ccc(C2Cn3nnc(C(=O)N4CCN(C(=O)c5ccc(C)cc5C)CC4)c3CO2)cc1 (centres undefined),"21.7 µM [falling, partial curve]"
4,CCc1cnc(N2CCC(COc3ccc4c(cnn4CC[S+](C)(=O)[O-])c3)CC2)nc1,"10.9 µM [falling, partial curve]"
5,CC(CCc1ccco1)NC(=O)CN1CCCc2nc(-c3ccccc3)ncc2C1=O (centres undefined),"19.3 µM [falling, partial curve]"
6,COCCN1CCCC2(CCN(c3nc(C)nc4sccc34)C2)C1=O (centres undefined),"17.2 µM [falling, partial curve]"
7,COC(=O)c1ccc(NC(=O)N2CC(Oc3cccc(-c4nc(C)no4)c3)C2)cc1,"34.3 µM [falling, single point]"
8,O=C(c1cccc(F)c1)N1CCN(c2cc(-c3ccc(Cl)cc3)[nH]n2)CC1,"21.7 µM [falling, partial curve, poor fit]"
9,COc1cccc(-c2ccc(CN3C4CCC3CN(C(=O)c3ccncc3)C4)cc2)c1,"12.2 µM [falling, partial curve]"
10,CN(C)c1cccc(-c2cnc3[nH]cc(CC(=O)N4CCOCC4)c3c2)c1,"31.4 µM [falling, partial curve]"
11,CCOc1ccc(CC(=O)N2CCC(Cc3nc(-c4ccc(OC)cc4)no3)CC2)cc1OCC,"21.7 µM [falling, partial curve]"
12,COc1nccc(N2CCC(CC(=O)N3CCCN(c4ncccn4)CC3)CC2)n1,"21.7 µM [falling, partial curve]"
13,O=C(OCc1ccccc1)N1CCC2(CC1)C(=O)NN=C2c1cccnc1,"19.3 µM [falling, partial curve]"
14,CCCc1cc(C(=O)N2CCC(=O)N(Cc3ccccc3)C(CC)C2)ccn1 (centres undefined),"9.68 µM [falling, partial curve]"
15,COc1ccc(-c2noc(CC3CCN(C(=O)c4cc(F)cc(F)c4)CC3)n2)cc1,"10.9 µM [falling, partial curve]"
16,COc1cc(C(=O)N2CCC(Cc3nc(-c4ccc(F)cc4)no3)CC2)cc(OC)c1OC,"19.3 µM [falling, partial curve]"
17,CC(C)Cc1cn(CC2CCCN(C(=O)NC3CCCCCC3)C2)nn1 (centres undefined),"17.2 µM [falling, partial curve]"
18,O=C(c1ccc2c(c1)OCO2)N1CCN(c2cc(-c3ccc(Cl)cc3)[nH]n2)CC1,"43.2 µM [falling, single point]"
19,O=C(c1ccccc1Br)N1CCN(c2cc(-c3ccc(Cl)cc3)[nH]n2)CC1,"12.2 µM [falling, partial curve]"
20,COc1ccc(NC(=O)N[C@H]2CO[C@H]3[C@@H]2OC[C@H]3OC(=O)Nc2ccc(Oc3ccccc3)cc2)cc1,"19.3 µM [falling, partial curve]"

row,Compound,CC50
1,O=C(Nc1cccc2ccccc12)O[C@@H]1CO[C@H]2[C@@H]1OC[C@@H]2NC(=O)c1cccs1,"31.4 µM [falling, partial curve]"
2,CN(Cc1noc(C2CCCC2)n1)c1cc(C2CC(O)C2)ncn1 (centres undefined),"19.3 µM [falling, partial curve]"
3,COc1ccc(CCC(=O)N2CCCC(n3cc(-c4nc(-c5ccccc5)no4)nn3)C2)cc1 (centres undefined),"27.3 µM [falling, partial curve]"
4,COc1ccc(CCC(=O)N2CCC(Cc3nc(-c4ccc(OC)cc4)no3)CC2)cc1,"19.3 µM [falling, partial curve]"
5,O=C(CCCc1ccccc1)N1CCC(Cc2nc(-c3ccc(F)cc3)no2)CC1,"19.3 µM [falling, partial curve]"
6,COc1ccc(-n2nc(C)c([C@H]3C=C[C@@H](OC(=O)N[C@H](C)c4ccccc4)C3)c2C)cc1,"19.8 µM [falling, partial curve]"
7,Cc1ncsc1C(=O)N1CCNc2cnc(Nc3cccc(F)c3)nc2C1,"19.8 µM [falling, partial curve]"
8,Cc1ccc(C2Cn3nnc(C(=O)N4CCN(C(=O)c5cccc(Cl)c5)CC4)c3CO2)cc1 (centres undefined),"19.3 µM [falling, partial curve]"
9,CC(=O)NC1(C)CCCN(c2ccc(Oc3ccccc3)cc2)C1 (centres undefined),"17.7 µM [falling, partial curve]"
10,Cc1noc2c(-c3cn[nH]c3)cc(-c3cccc(C(F)(F)F)c3)nc12,"62.7 µM [falling, single point]"
11,COc1ccc(-c2noc(CC3CCN(C(=O)CC4CCCCC4)CC3)n2)cc1,"15.3 µM [falling, partial curve]"
12,CC1=C[C@@H](CNC(=O)c2ccccn2)[C@H](C(C)C)C[C@H]1Cc1nnc(-c2ccncc2)o1,"31.4 µM [falling, partial curve]"
13,Cc1ccc(C(=O)N2CCN(c3cc(-c4ccccc4)[nH]n3)CC2)c(C)c1,"19.3 µM [falling, partial curve]"
14,COc1ccc(NC(=O)c2ccc(-c3nnc4ccc(NC(=O)C5CCC5)cn34)cc2)cc1,"17.2 µM [falling, partial curve]"
15,COc1ccc(C(=O)N2CCC3(CC2)N=C(c2ccc(Cl)cc2)NO3)cc1F,"21.7 µM [falling, partial curve]"
16,Cc1cn2nnc(C(=O)NCc3ccc(C(C)C)cc3)c2c(=O)[nH]1,"34.3 µM [falling, single point]"
17,COc1cccc(CCC(=O)N2CCC(Cc3nc(-c4cccc(OC)c4)no3)CC2)c1,"21.7 µM [falling, partial curve]"
18,O=C(c1[nH]nc2c1CCc1ccccc1-2)N1CCC(c2noc(-c3cccnc3)n2)C1 (centres undefined),"34.3 µM [falling, single point]"
19,Cc1nc(C)c(CC(=O)N2CCCC(C)(Cc3ccc4c(c3)OCO4)C2)s1 (centres undefined),"21.7 µM [falling, partial curve]"
